The campaign covered roughly 140,000 compounds. About 240 (0.17%) were called active. This list was built around the results that the source calls inconclusive (neither active nor inactive); the mix of calls is not that of the screen. Calls follow the shape of the dose curve; as a rule, active = well fitted inhibition curve with a large enough effect; inconclusive = small, poorly fitted or top-dose-only effect; inactive = no such curve, though single readings can be large or run the other way. Potencies beside an inconclusive call are fits to weak or partial responses and may not hold up.
Test: Primary qHTS assay for inhibitors of alpha-synuclein gene (SNCA) expression; also: nearly all actives have a fitted effect of over 45% in size
Details: HEK-293 SNCA-luciferase knock-in, luminescence, 24 h; series mostly up to 57.2 µM
Potency is read from the fitted curve at half-maximal effect; tags tell the direction and shape of the fitted curve.

Potency, inactive:
Cc1noc(-c2ccc(OC3CN(C(=O)c4ccoc4)C3)cc2)n1, Cc1ccc(NC(=O)CCC2CCN(C(=O)c3ccccc3)CC2)cc1F, CN(C)c1cccc(-c2nc(N3CCOCC3)cc3c2CN(Cc2cnn(C)c2)C3=O)c1, Cc1noc2c(NCCc3ccccn3)cc(-c3cccnc3)nc12, O=C(c1cn(CCC2CCCCN2Cc2cccnc2)nn1)N1CCOCC1 (centres undefined), CNS(=O)(=O)c1ccc(CCC(=O)N2CC[C@H]3CC[C@@H](C2)N3)cc1, CC(C)(C)C1CCC2(CC1)NC(=O)N(CC(=O)Nc1ccc(F)cc1F)C2=O (centres undefined), Cc1ccc(CC(=O)N2CCCN(S(C)(=O)=O)c3ccccc32)cc1, CCn1nccc1C(=O)N1CCC(CCOC)(NC(=O)c2ccccc2)CC1

Potency, inconclusive:
COc1ccc(Cn2ccc3nc(C)c(C(=O)Nc4ccc(OC(F)(F)F)cc4)cc3c2=O)cc1 39.8 µM [inhibitor, single point], CCOC(=O)c1c(Nc2cc(C)cc(C)c2)nnc(-c2ccccc2)c1-c1ccccc1 12.6 µM [inhibitor, partial curve], CCCCC(=O)OC1=C(C(=O)c2ccccc2)N(CC)S(=O)(=O)c2ccccc21 20 µM [inhibitor, partial curve, poor fit], Cc1noc(-c2ccn3c(CNC(=O)c4ccc5ccccc5n4)nnc3c2)n1 1.78 µM [inhibitor, partial curve, poor fit], CCCCC(=O)OC1=C(C(=O)c2ccccc2)N(C)S(=O)(=O)c2ccccc21 22.4 µM [inhibitor, partial curve, poor fit], COc1ccc(CNS(=O)(=O)c2cnc(N)nc2)cc1 25.1 µM [inhibitor, single point], COc1ccc(-c2cc(N3CCN(C(=O)c4ccc(C)cc4)CC3)n[nH]2)cc1 8.91 µM [inhibitor, single point], Cc1cc(C)n(-c2nnc(Nc3cc(Cl)ccc3C)c3ccccc23)n1 22.4 µM [inhibitor, partial curve, poor fit], O=C1C2=C(Nc3ccccc3SC2c2ccccc2C(F)(F)F)c2ccccc21 (centres undefined) 7.08 µM [inhibitor, single point], COc1cc2c(cc1OC)[C@@H]1C(=O)c3ccc4c(c3O[C@@H]1CO2)C=CC(C)(C)O4 24.1 µM [inhibitor, partial curve, poor fit], Cc1nc(-c2ccc(C)c(S(=O)(=O)N3CCC(C(=O)Nc4ccc(Cl)cc4)CC3)c2)no1 14.1 µM [inhibitor, single point], CCN(CC)C(=O)CCc1c(C)nn(-c2ccccc2C)c1Oc1ccccc1 39.8 µM [inhibitor, single point], O=C(c1nnc(COc2ccc(F)cc2)n1-c1ccccc1)N1CCC[C@@H]1C(c1ccccc1)c1ccccc1 1.26 µM [inhibitor, full curve, poor fit], OCC1(CCCc2ccccc2)CCN(Cc2ccc(-n3cccn3)cc2)CC1 35.5 µM [inhibitor, partial curve, poor fit], COc1ccc(CC(=O)N2C[C@@H](C(=O)O)[C@H](c3ccccc3)C2)c(OC)c1 1.26 µM [inhibitor, partial curve, poor fit], CC1Cc2cc(S(=O)(=O)N(C)c3ccc(Br)cc3)ccc2N1C(=O)C1CC1 (centres undefined) 39.8 µM [inhibitor, single point], CC(C)c1cnn2c(NCc3ccccc3)cc(N[C@@H](CO)[C@H](O)CO)nc12 1.52 µM [inhibitor, full curve], CCOC(=O)N1CCC(NC(=O)c2ccc3c(c2)N(Cc2cc(C)ccc2C)C(=O)c2ccccc2S3=O)CC1 (centres undefined) 0.178 µM [inhibitor, single point], CC(C)NC(=O)c1ccccc1OCC1CCCN(Cc2nccs2)C1 (centres undefined) 39.8 µM [inhibitor, single point], O=C(C1CC(=O)N(c2n[nH]c3ccccc23)C1)N1CCC(c2noc3cc(F)ccc23)CC1 (centres undefined) 39.8 µM [inhibitor, single point], O=C(Nc1cccc(F)c1)N1CCCC(c2nn[nH]n2)C1 (centres undefined) 35.5 µM [inhibitor, single point], CCCCC(=O)Nc1c(C(=O)N2CCN(c3ccccc3F)CC2)oc2ccccc12 39.8 µM [inhibitor, single point], CCc1noc(-c2cn(C3CCN(C(=O)c4ccc(Cl)cc4)CC3)nn2)n1 3.16 µM [inhibitor, full curve], COc1ccc(CNC(=O)C2CCN(c3nnc(-n4c(C)ccc4C)s3)CC2)c(OC)c1 10 µM [inhibitor, partial curve, poor fit], CC1CCN(C(c2ccccc2)c2sc3nc(-c4ccco4)nn3c2O)CC1 (centres undefined) 39.8 µM [inhibitor, single point], O=C(CSc1nc(-c2ccccc2)cn1-c1ccccc1F)Nc1ccc(F)cc1 20 µM [inhibitor, single point], COc1ccc(NC(=O)CSc2nc(-c3cc(OC)c(OC)c(OC)c3)[nH]c2-c2ccc(F)cc2)cc1 39.8 µM [inhibitor, single point], CC(C)N1CCC(CC(=O)N2CCCC(c3ccc(C(=O)O)cc3)C2)CC1 (centres undefined) 39.8 µM [inhibitor, single point], O=C(Nc1cccc(Br)c1)c1cnc(-c2ccccc2)nc1-c1ccncc1 28.2 µM [inhibitor, single point], Cc1ccc(-n2ncc(C(=O)NCCN3CCc4ccccc4C3)c2C2CCN(C(=O)OC(C)(C)C)CC2)cc1C 28.2 µM [inhibitor, partial curve, poor fit]

— PubChem BioAssay AID1671194 (National Center for Advancing Translational Sciences (NCATS), 2021)
